One assay concerns the target T1, human IL-17A (human, UniProt Q16552 24-155).
T1 construct: also called hIL-17A; IL-17 A/A
The assay can be described thus: competition ELISA (ECL), biotinylated hIL-17A, coated soluble hIL-17RA. On the technique in general: In an ELISA, binding on a coated surface is turned into a signal by an enzyme label.

A further assay addresses T2, human IL-23 (human, UniProt Q9NPF7 20-189; P29460 23-328).
T2 construct: Heterodimer of p19 and p40; in the proliferation assays CAT # HZ-1254, HumanZyme; also called hIL-23; hIL23
T2 sequence (looked up) 1: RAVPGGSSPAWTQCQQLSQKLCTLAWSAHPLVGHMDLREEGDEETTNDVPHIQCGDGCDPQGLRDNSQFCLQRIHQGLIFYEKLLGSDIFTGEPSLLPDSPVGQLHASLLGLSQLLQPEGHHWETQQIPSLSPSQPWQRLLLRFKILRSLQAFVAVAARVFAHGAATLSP
T2 sequence (looked up) 2: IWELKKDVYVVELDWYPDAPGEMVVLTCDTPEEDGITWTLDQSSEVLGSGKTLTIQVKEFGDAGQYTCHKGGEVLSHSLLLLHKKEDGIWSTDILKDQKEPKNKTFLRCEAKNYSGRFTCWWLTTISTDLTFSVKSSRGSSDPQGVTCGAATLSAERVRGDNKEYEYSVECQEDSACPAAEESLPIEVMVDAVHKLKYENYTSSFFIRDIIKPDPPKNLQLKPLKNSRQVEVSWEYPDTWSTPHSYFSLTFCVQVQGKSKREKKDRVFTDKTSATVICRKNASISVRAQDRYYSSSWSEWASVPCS
Nature of the assay: competition ELISA (fluorescence), 1.6 nM hIL-23, captured hIL-23R-Fc.

Chain of human IL-17A (Q16552 24-155 limits assumed): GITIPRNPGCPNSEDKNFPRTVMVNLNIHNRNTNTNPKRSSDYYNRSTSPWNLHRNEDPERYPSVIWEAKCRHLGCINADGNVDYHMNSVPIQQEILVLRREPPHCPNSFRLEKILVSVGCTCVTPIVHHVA

B1: Tlc mutein of SEQ ID NO: 7 (negative control) (designed binder)
chain: ASDEEIQDVSGTWYLKAMTVDRECPEMNLESVTPMTLTTLEGGNLEAKVTMLISGRSQEVKAVLEKTDEPGKYTADGGKHVAYIIRSHVKDHYIFYSEGECHGKPVPGVWLVGRDPKNNLEALEDFEKAAGARGLSTESILIPRQSETSSPG
notes: Tear lipocalin based negative control
On to B1, for which the values for the binding result with human IL-17A and in the assay with human IL-23 were “no binding (tested: starting concentration 1000 nM)” and “no binding (tested: starting concentration 500 nM)”, respectively.

Values taken from patent US20200148733A1 (Pieris, published 2020).
